Reference: PubChem BioAssay AID624170 (National Center for Advancing Translational Sciences (NCATS), 2012)
The campaign covered roughly 410,000 compounds. About 850 (0.21%) were called active. The shares of active, inactive and inconclusive entries below differ from those in the screen. Calls come from the whole dose curve; as a rule, active = well fitted inhibition curve with a large enough effect; inconclusive = small, poorly fitted or top-dose-only effect, or another doubt; inactive = no such curve, though single readings can be large or run the other way. Potencies of inconclusive entries are left out as doubtful fits.

Biological target: Glutaminase kidney isoform, mitochondrial (Homo sapiens) (UniProt O94925)
Experiment: qHTS for Inhibitors of Glutaminase (GLS)
Details: GLS enzymatic activity, qHTS titration; series mostly up to 45.5 µM; activity change, negative = inhibition: at the top concentration
How it was run: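 Assay buffer: 45 mM KH2PO4 pH 8.2, 0.02% Tween-20. hKGA acts on L-glutamine (1 mM solution added); product glutamate is reported by an oxidase/peroxidase Amplex Red coupling, with fluorescence taken at baseline and 30 min.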
% is set by controls: 0 for no effect and ±100 for the full control effect; potency is the fitted concentration of half-maximal effect; tags give direction and shape of the fitted curve.

UniProt O94925, sequence (O94925 whole entry, looked up, canonical isoform): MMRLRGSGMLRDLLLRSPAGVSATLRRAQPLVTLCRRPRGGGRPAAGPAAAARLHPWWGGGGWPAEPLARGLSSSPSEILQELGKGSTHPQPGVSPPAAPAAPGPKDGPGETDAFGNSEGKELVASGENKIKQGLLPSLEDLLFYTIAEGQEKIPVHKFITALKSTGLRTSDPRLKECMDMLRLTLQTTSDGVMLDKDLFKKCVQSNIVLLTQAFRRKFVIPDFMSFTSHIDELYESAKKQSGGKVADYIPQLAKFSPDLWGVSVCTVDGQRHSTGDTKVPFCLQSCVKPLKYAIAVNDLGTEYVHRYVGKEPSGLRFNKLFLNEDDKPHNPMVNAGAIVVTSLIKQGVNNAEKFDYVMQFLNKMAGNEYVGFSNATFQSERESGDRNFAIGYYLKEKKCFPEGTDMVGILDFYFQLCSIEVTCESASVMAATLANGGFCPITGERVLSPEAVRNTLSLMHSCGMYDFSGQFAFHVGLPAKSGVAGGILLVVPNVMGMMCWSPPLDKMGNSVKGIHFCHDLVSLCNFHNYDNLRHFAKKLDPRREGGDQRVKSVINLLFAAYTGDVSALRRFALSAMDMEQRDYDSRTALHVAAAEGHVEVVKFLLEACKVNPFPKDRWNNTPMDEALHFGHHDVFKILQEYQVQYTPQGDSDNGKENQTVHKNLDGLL

SMILES	Potency	activity change, negative = inhibition
Cc1ccc(SCc2c(C#N)c3ccccc3n2C)cc1	inconclusive [inhibitor, single point]	
CC(=O)OC(C(=O)NC1CCCCC1)c1ccccc1 (stereo not drawn)	inconclusive [inhibitor, single point]	
CCN(CC)C(=O)c1sc(NC(=O)c2ccoc2C)c(C(=O)OC)c1C		inactive: -13.5%
CCOc1cccc(-c2c(C(=O)N/N=C/c3ccoc3)nnn2-c2nonc2N)c1	inconclusive [inhibitor, single point]	
O=c1c2ccccc2sn1-c1cc(S(=O)(=O)N2CCOCC2)ccc1N1CCCC1	inconclusive [inhibitor, single point]	
Cc1[nH]n(-c2ccccc2)c(=O)c1C(C[N+](=O)[O-])c1ccc(Cl)cc1 (stereo not drawn)	inconclusive [inhibitor, single point]	
CCn1c(=O)c(C(=O)CN2CCc3ccccc32)c(N)n(Cc2ccccc2)c1=O	inconclusive [inhibitor, partial curve]	
Cn1c(=O)c2c(nc(SCC(=O)NCc3ccc4c(c3)OCO4)n2Cc2ccc(Cl)cc2)n(C)c1=O		inactive: 2.09%
CSc1ccccc1C(=O)C1CCCN(C(=O)c2cncs2)C1 (stereo not drawn)	inconclusive [inhibitor, single point]	
OC1Cc2ccccc2C1Nc1cccc(C(F)(F)F)c1 (stereo not drawn)		inactive: 16.7%
Cc1nn2c(NCCCN(C)C)c3c(nc2c1-c1ccccc1)CCCC3	inconclusive [inhibitor, single point]	
COc1ccc(CN2CCCCCC2)cc1OC		inactive: -10.4%
COc1ccc(-n2sc3ccc(F)cc3c2=O)cc1	inconclusive [inhibitor, single point]	
COc1cc(NC(=O)c2cc(-c3ccc4c(c3)OCO4)on2)cc(OC)c1OC	inconclusive [inhibitor, single point]	
COc1ccc(OC)c(C2CC(=O)c3c([nH]c(C(=O)OC4CCC(C)CC4)c3C)C2)c1 (stereo not drawn)		inactive: -10.1%
CCc1ccc(NC(=O)C(C)OC(=O)/C=C/c2ccc(O)c(OC)c2)cc1 (stereo not drawn)	inconclusive [inhibitor, partial curve]	
Cn1c(=O)c2ncn(CC(=O)N/N=C/C=C/c3ccccc3)c2n(C)c1=O	inconclusive [inhibitor, single point]	
O=C(NNS(=O)(=O)c1ccc(F)cc1)c1ccc([N+](=O)[O-])cc1	inconclusive [inhibitor, partial curve, poor fit]	
COc1ccc(NC(=O)c2ccco2)cc1N	inconclusive [inhibitor, single point]	
O=C(CSc1nc2[nH]c(=O)cc(O)c2s1)Nc1cccc(Br)c1		inactive: -3.62%
COc1ccc(O)c(C(=O)c2cnn(-c3ccc(Cl)cc3)c2)c1	inconclusive [inhibitor, partial curve]	
COc1cc2c(cc1OC)-c1cc(NCc3ccccn3)nc(=O)n1CC2	inconclusive [inhibitor, single point]	
Cn1c(Oc2ccc3c(c2)OCO3)nc2c1c(=O)n(Cc1ccccc1)c(=O)n2C	inconclusive [inhibitor, single point]	

SMILES	Potency	activity change, negative = inhibition
O=C(O)c1cccc(Cn2c(Cl)c(/C=N/Nc3ccccc3)sc2=O)c1	inconclusive [inhibitor, single point]	
CCC(=O)NC(c1ccccc1OC)c1ccc2cccnc2c1O (stereo not drawn)		inactive: 23%
Cc1ccc(Cn2ccnc2C(=O)Nc2ccccc2)cc1		inactive: 1.92%
CC(C)CC(=O)Nc1cccc(-c2nc3ncccc3o2)c1		inactive: -5.17%
CC(=O)C1=C(O)C(=O)N(c2ccccn2)C1c1cccc(F)c1 (stereo not drawn)	inconclusive [inhibitor, partial curve, poor fit]	
c1ccc(C2NCCn3cccc32)cc1 (stereo not drawn)	inconclusive [inhibitor, single point]	
CN1CCN(Cc2nc3ccccc3c(=O)n2Cc2nc(-c3ccccc3F)cs2)CC1		inactive: 0.359%
CN1CCN(CC(=O)Nc2sc3c(c2C(=O)Nc2ccccc2)CCCC3)CC1		inactive: 9.23%
O=C(CC(CC(=O)c1ccccc1)c1ccccc1)c1ccccc1	inconclusive [inhibitor, single point]	
COc1ccc(-c2cc3ccccc3[nH]2)cc1	inconclusive [inhibitor, partial curve]	
COc1cc(CNn2cn[nH]c2=S)cc(Cl)c1OCc1ccccc1	inconclusive [inhibitor, partial curve, poor fit]	
O=Cc1cc(N=Nc2ccc(S(=O)(=O)O)cc2)ccc1O	inconclusive [inhibitor, single point]	
O=C(Nc1sc(-c2ccccc2)cc1C(=O)O)c1ccccc1	inconclusive [inhibitor, single point]	
CS(=O)(=O)N1CC(C(=O)NC2CCCC2)Oc2ccc(Cl)cc21 (stereo not drawn)		inactive: -2.31%
CC(=O)c1c(C)oc2ccc(N(C(=O)c3ccncc3)S(=O)(=O)c3ccccc3)cc12	inconclusive [inhibitor, partial curve, poor fit]	
CC(=O)c1sc(NC(=O)CCNC(=O)c2ccco2)nc1-c1ccccc1		inactive: 3.24%
Cc1c(C(c2ccc(N(C)C)cc2)c2c(C)n(C)n(-c3ccccc3)c2=O)c(=O)n(-c2ccccc2)n1C	inconclusive [inhibitor, partial curve]	
CN1CCC(=NNC(=O)C(=O)Nc2cccc(Br)c2)CC1	inconclusive [inhibitor, partial curve, poor fit]	
Cc1ccc(-c2n[nH]c(=S)n2/N=C/C=C/c2ccccc2[N+](=O)[O-])cc1	inconclusive [inhibitor, partial curve, poor fit]	
CC1=C(c2ccccc2)C(O)(c2ccccc2)C(C)C1=O (stereo not drawn)	inconclusive [inhibitor, partial curve, poor fit]	
COc1ccc(C(=O)NNC(=S)Nc2ccccc2)cc1	inconclusive [inhibitor, single point]	
COc1cc(Cl)c(C)cc1NC(=O)Cn1c(NCCO)nc2ccccc21		inactive: 0%
CC(=O)NCCCC(=O)NN1C(=S)N(Cc2ccccc2)C(=O)C1CC(=O)Nc1cccc(C)c1 (stereo not drawn)	inconclusive [inhibitor, single point]	

SMILES	Potency	activity change, negative = inhibition
O/N=C/c1cc(Br)ccc1OCc1ccc(F)cc1		inactive: 13.1%
CCN1/C(=C2\C(=O)N(C)C(=S)N2C)C=Cc2ccccc21	inconclusive [inhibitor, single point]	
COc1ccc(C(=O)N/C(=C\c2cn(S(=O)(=O)N(C)C)c3ccccc23)C(=O)NC(C)C)cc1	inconclusive [inhibitor, single point]	
CC(C)CC1NC(=S)N(C2CCCCC2)C1=O (stereo not drawn)	inconclusive [inhibitor, single point]	
Cc1ccccc1NC(=O)c1[nH]cnc1C(=O)NN	inconclusive [inhibitor, single point]	
Cc1cc(C)c(C(=O)CC(=O)c2ccccc2Cl)c(O)c1	inconclusive [inhibitor, partial curve, poor fit]	
CCOc1ccc(N(CC(=O)N2CCN(C(=O)CN(c3ccc(OCC)cc3)S(C)(=O)=O)CC2)S(C)(=O)=O)cc1	inconclusive [inhibitor, single point]	
COCc1cc(=O)n2[nH]c(N)nc2n1	active: 8.91 µM	
CC1CC1C(=O)OCC(=O)Nc1ncc(Cl)cc1Cl (stereo not drawn)	inconclusive [inhibitor, partial curve, poor fit]	
Cc1cc(C)n(-c2ccc(Cl)c(C(=O)OCC(=O)N3CCCCC3C)n2)n1 (stereo not drawn)		inactive: 3.24%
O=C1CCCC2=C1C(c1ccc(O)c(O)c1)Nc1ccc3ccccc3c12 (stereo not drawn)	inconclusive [inhibitor, single point]	
CCOc1cc(/C=C2\N=C(SC)SC2=O)cc([N+](=O)[O-])c1OC(C)=O	inconclusive [inhibitor, single point]	
CN(C(=O)C1CCCN(S(=O)(=O)c2cccc([N+](=O)[O-])c2)C1)C1CCS(=O)(=O)C1 (stereo not drawn)	inconclusive [inhibitor, partial curve, poor fit]	
CCCn1c(-c2ccc(S(=O)(=O)N3CCOCC3)cc2)csc1=Nc1ccc(OCC)cc1		inactive: -0.0839%
Cc1ccc(-n2c(COc3ccccc3)n[nH]c2=S)cc1	inconclusive [inhibitor, single point]	
CCN(CC)S(=O)(=O)c1nnc(NC(=O)COc2ccc(Cl)cc2)s1		inactive: 4%
O=C(N/N=C/c1coc2ccc(Cl)cc2c1=O)c1cc(O)cc(O)c1	inconclusive [inhibitor, partial curve, poor fit]	
O=C(CN1C(=O)NC2(CCCC2)C1=O)OCc1cc(=O)n2cc(Br)ccc2n1	inconclusive [inhibitor, partial curve, poor fit]	
O=C(CCCN1C(=O)c2cccc3cccc(c23)C1=O)Nc1ccon1	inconclusive [inhibitor, partial curve]	
CCOc1ccc(C(=O)NC(=S)Nc2cccnc2)cc1[N+](=O)[O-]	inconclusive [inhibitor, partial curve, poor fit]	
O=c1[nH]c2sc3c(c2c2nncn12)CCCC3		inactive: 6.76%
C=CCc1cccc2cc(C(=O)Nc3ccc(CC(=O)O)cc3)c(=O)oc12		inactive: -26.2%
